Screen size: about 310,000 compounds; about 14,000 (4.5%) showed an effect of 50% or more. Effects have a minus sign here. The list shows a part of the results.
biological target: human ether-à-go-go-related gene (hERG) potassium channel (human, UniProt Q12809); assay: primary screen, population patch clamp on CHO cells stably expressing hERG
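Also: peak tail current of the secondary pulse compared with the same well before compound.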

Chain of human ether-à-go-go-related gene (hERG) potassium channel (Q12809 whole entry, looked up): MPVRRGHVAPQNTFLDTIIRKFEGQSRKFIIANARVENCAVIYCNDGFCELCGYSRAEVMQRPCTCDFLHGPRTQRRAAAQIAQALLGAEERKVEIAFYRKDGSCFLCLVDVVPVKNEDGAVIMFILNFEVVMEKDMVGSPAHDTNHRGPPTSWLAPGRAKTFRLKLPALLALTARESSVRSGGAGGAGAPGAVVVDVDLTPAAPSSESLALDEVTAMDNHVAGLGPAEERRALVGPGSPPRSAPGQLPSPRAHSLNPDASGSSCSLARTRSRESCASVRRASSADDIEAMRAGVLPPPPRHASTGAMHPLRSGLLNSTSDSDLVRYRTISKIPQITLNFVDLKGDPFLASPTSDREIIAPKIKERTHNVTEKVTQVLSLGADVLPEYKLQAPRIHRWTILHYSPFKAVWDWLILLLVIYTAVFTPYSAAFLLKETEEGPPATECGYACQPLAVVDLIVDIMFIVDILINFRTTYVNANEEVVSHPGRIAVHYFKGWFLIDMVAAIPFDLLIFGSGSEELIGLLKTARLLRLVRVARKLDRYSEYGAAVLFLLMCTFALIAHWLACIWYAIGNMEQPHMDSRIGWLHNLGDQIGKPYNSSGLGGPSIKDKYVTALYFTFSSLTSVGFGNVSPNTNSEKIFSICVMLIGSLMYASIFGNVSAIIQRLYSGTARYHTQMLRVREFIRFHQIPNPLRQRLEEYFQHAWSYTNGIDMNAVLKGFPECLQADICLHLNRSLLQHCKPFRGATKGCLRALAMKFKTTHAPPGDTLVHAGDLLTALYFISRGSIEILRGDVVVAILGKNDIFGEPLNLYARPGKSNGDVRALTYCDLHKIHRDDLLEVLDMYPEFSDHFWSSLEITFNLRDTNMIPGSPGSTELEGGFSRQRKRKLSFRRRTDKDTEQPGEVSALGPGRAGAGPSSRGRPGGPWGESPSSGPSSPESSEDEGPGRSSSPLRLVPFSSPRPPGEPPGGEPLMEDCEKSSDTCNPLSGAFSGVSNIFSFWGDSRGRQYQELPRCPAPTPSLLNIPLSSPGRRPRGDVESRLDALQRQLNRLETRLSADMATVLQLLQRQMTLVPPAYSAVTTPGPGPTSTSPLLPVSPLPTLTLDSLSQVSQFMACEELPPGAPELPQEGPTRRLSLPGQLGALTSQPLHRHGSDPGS

Row | SMILES | hERG current change (%, negative = inhibition) at 10uM
1 | Cc1ccc(S(=O)(=O)N(C)/N=C2/C(=O)N(CC(=O)O)c3ccccc32)cc1 | 27.7%
2 | Cc1cccc2sc(NC(=O)CCn3cccc3)nc12 | 1.51%
3 | Cc1ccccc1OCC(=O)OCC(=O)c1ccc(OCc2ccccc2)cc1 | 23.9%
4 | COc1cccc(/C=N/NC(=O)c2ccc(=O)[nH]n2)c1O | 15.2%
5 | COCCCNC(=O)CCc1c(C)nc2c(c(C)nn2-c2ccccc2)c1C | -1.85%
6 | COc1ccc(/C=N/NC(=O)COc2cccc3ccccc23)c(C(=O)O)c1OC | -1.07%
7 | COc1ccc(CC2(CO)CCN(CC3=Cc4cc(Cl)ccc4OC3)CC2)cc1 | -58.3%
8 | Cc1nn(-c2ccc(N3CCOCC3)nn2)c(C)c1CCC(=O)NCc1ccccc1F | 8.51%
9 | CCn1nc(C)cc1-c1nnc(Sc2ncc([N+](=O)[O-])s2)n1C | -19.8%
10 | CC(=C\c1ccccc1)/C=C1/SC(=S)N(CCC(=O)Nc2ccccn2)C1=O | 27.6%
11 | COc1ccc2c(c1)C(=O)N(c1ccccc1C)C(=O)C2(C)C | 1.78%
12 | CC(C)COc1ccc(C(=S)N2CCCC2)cc1 | -11.5%
13 | Cc1cccc(C(=O)NNC(=O)c2ccc(NS(=O)(=O)c3cccs3)cc2)c1C | 0.0304%
14 | C=CCn1c(SCC(=O)NC23CC4CC(CC(C4)C2)C3)nc2cc(C(=O)O)ccc2c1=O | 23.3%
15 | COc1cc(SC)ccc1C(=O)OCC(=O)NC(=O)NC(C)C | -0.076%
16 | O=C(COc1ccc2ccccc2c1Br)NCc1ccccn1 | -2.3%
17 | Cc1cccc(N=CC=C2OC(C)(C)C(C)(C)O2)c1 | 3.43%
18 | OCCCNc1cc(-c2ccccc2)nc2cc(-c3ccc(F)cc3)nn12 | 1.51%
19 | Cc1cccc(C(=O)Nc2ccccc2NC(=O)c2cccc(C)c2)c1 | 8.24%
20 | O=C1CCN(CCc2ccccc2)CCN1[C@H](CSc1ccccc1)Cc1ccccc1 | -77.1%
21 | O=C(OCc1nnc(-c2ccccc2)o1)c1cc(S(=O)(=O)N2CCOCC2)ccc1F | 5.79%
22 | CN(c1ccccc1C(=O)Nc1ccc(S(=O)(=O)N2CCCCC2)cc1)S(C)(=O)=O | 0.441%
23 | COc1cccc(CNC(=O)CCCn2ncn3c(cc4occc43)c2=O)c1 | -42.9%

Row | SMILES | hERG current change (%, negative = inhibition) at 10uM
24 | C=C(C)C1CC=C(C)/C(=N\NC(=O)CNc2cccc3ccccc23)C1 (stereo not drawn) | 9.77%
25 | COC(=O)c1c(-c2ccc(F)cc2)noc1N | -42.3%
26 | CC1c2ccsc2CCN1S(=O)(=O)c1ccccc1 (stereo not drawn) | -18.6%
27 | COc1cc2c(cc1OC)CN(C(=O)Cn1ccccc1=O)CC2 | -2.11%
28 | COc1cccc(N2CC(C(=O)Nc3nnc(SCC(=O)N4CCOCC4)s3)CC2=O)c1 (stereo not drawn) | 18.1%
29 | O=C(Nc1ccncc1)c1ccccc1F | 7.13%
30 | CN(C)C(=O)CN1C(=O)C2CC=C(Cl)CC2C1=O (stereo not drawn) | 4.94%
31 | O=C(Cn1ncc2c3ccccc3n(Cc3cccc(Cl)c3)c2c1=O)N1CCC2(CC1)OCCO2 | -69%
32 | O=C(NCCc1ccccc1)Nc1ccc2c(c1)OCO2 | 15.5%
33 | Cc1c(C(=O)N2CCCCC2CCN2CCCC2=O)oc2c(F)cccc12 (stereo not drawn) | 2.28%
34 | CN(CC(=O)Nc1ccccc1C(F)(F)F)C(=O)Cc1ccccc1F | 10.2%
35 | COCCCNC(=S)Nc1ccc(C)cc1 | 7.37%
36 | CCCn1c(SCc2nc(-c3cccs3)no2)nnc1-c1ccncc1 | -4.13%
37 | O=C(c1cnn2c(C(F)(F)F)cc(-c3cccs3)nc12)N1CCCC1 | -8.48%
38 | COc1ccc2[nH]c3c(=O)n(CCCCC(=O)NCCC(C)C)c(=S)[nH]c3c2c1 | 16.3%
39 | CC(C)(C)c1ccc(-c2nnc(SC3CCOC3=O)n2Cc2ccccc2)cc1 (stereo not drawn) | -33.1%
40 | CCC(=O)Oc1ccc(NC(=O)CSCc2ccccc2)cc1 | 6.81%
41 | O=C(Nc1ccon1)c1ccccc1Cl | 10.6%
42 | O=C(CCNS(=O)(=O)c1ccc(Cl)cc1)N1CCN(c2ccccn2)CC1 | -41.5%
43 | C/C(=C/c1ccccc1)C(=O)N1CCN(c2ccc(F)cc2)CC1 | -42.2%
44 | O=C(CSc1nc2[nH]ncc2c(=O)n1-c1ccc(Cl)c(Cl)c1)NCc1ccccc1Cl | -11.4%
45 | On1nnc2cc(C(F)(F)F)ccc21 | 27.7%
46 | CCOC(=O)C1=C(c2ccccc2)N=C2SCC(=O)N2C1c1cccc(OC)c1 (stereo not drawn) | -20.2%

Row | SMILES | hERG current change (%, negative = inhibition) at 10uM
47 | O=S(=O)(c1ccc(Br)cc1)n1c(Cc2ccccc2)nc2ccccc21 | 2.17%
48 | CCc1ccc(NC(=O)CN(N=Nc2nonc2C)c2nonc2C)cc1 | 3.47%
49 | O=C(CNC(=O)c1cccnc1)N/N=C/c1ccc(O)cc1O | 8.97%
50 | COc1ccccc1N1CCN(C(=O)c2sc3nc4n(c(=O)c3c2C)CCC4)CC1 | 13.1%
51 | COc1ccc(N(CC(=O)N2CCc3ccccc3C2)S(C)(=O)=O)cc1Cl | -25.7%
52 | Cc1ccc(C(=O)NC(C)c2nnc(SCC(=O)NC3CCCC3)n2C)cc1 (stereo not drawn) | -14%
53 | CC(C)Oc1cccc(-c2cc(C(=O)NN3CCOCC3)c3ccccc3n2)c1 | -60.8%
54 | CC(=O)NCC(=O)OCC(=O)c1ccc(Cl)cc1 | 18%
55 | COc1ccc(C(=S)N2CCNCC2)cc1 | 3.52%
56 | Cc1cc2nc(-c3ccc(SCc4ccccn4)nc3)[nH]c2cc1C | 2.32%
57 | Cc1ccc(C(=O)ONc2ccc(N=O)cc2)cc1 | 9.94%
58 | Cl.O=C(CCN1CCOCC1)NCc1ccccc1 | 14.6%
59 | Cc1ccc2c(c1)-c1ccccc1S(=O)(=O)N2 | -1.12%
60 | CCN(CC(=O)Nc1c(F)cccc1F)C(=O)CN1C(=O)C2CCCCC2C1=O (stereo not drawn) | 8.49%
61 | CCCn1c(=O)c2[nH]c(-c3ccc(OCC(=O)Nc4ccc(C#N)cc4)cc3)nc2n(CCC)c1=O | 16.5%
62 | c1ccc(-c2ncnc3cc4n(c23)CCC4)cc1 | 11.3%
63 | O=C(NCCc1ccc(Cl)cc1)c1ccc(Br)s1 | 3.22%
64 | COc1ccc(N(CC(=O)Nc2ccccc2F)S(=O)(=O)c2ccc(C)c([N+](=O)[O-])c2)cc1 | 7.94%
65 | O=C1CCCN1CCCN1CC(C(=O)N(CCO)Cc2ccccc2)CCC1=O (stereo not drawn) | 13.9%
66 | CC(=O)c1cccc(NC(=O)C2CC(=O)N(c3cccc(C)c3C)C2)c1 (stereo not drawn) | -9.35%
67 | COC(=O)c1c(NC(=O)c2ccccc2[N+](=O)[O-])sc2c1CC(C)(C)NC2(C)C | -6.93%
68 | CCOC(=O)c1ccc(N=C2NC(=O)CS2)cc1 | -1.47%
69 | CCC(=O)NCCc1nc(-c2ccccc2)no1 | 4.98%

Row | SMILES | hERG current change (%, negative = inhibition) at 10uM
70 | O=C(Cc1ccc(-n2c(=O)c3ccccc3n(Cc3ccccc3Cl)c2=O)cc1)NCC1CCCO1 (stereo not drawn) | -1.93%
71 | COc1ccc(F)cc1C(=O)C1CCCN(Cc2cccn2-c2cccnc2)C1 (stereo not drawn) | -47%
72 | NC(=O)c1ccc(SCC(=O)OCC(=O)NCC2CCCCC2)c([N+](=O)[O-])c1 | -5.21%
73 | CCCCC(=O)Nc1cc2nn(-c3ccc(OC)cc3)nc2cc1C | 14.9%
74 | CCOc1ccc(N=Nc2c(N)[nH][nH]c2=O)cc1 | 0.38%
75 | CCN(CC)S(=O)(=O)c1ccc2[nH]cc(C(=O)NCCC3=CCCCC3)c(=O)c2c1 | 4.34%
76 | Cc1ccc(Cc2cnc(N3C(=N)SC(C)C3=O)s2)cc1 (stereo not drawn) | 16%
77 | CCCCCn1c(=O)c(C(=O)NCc2ccncc2)c(O)c2ccccc21 | -53.7%
78 | Cc1onc(-c2c(F)cccc2Cl)c1C(=O)NCC1COc2ccccc2O1 (stereo not drawn) | -8.14%
79 | Nc1nc2c(s1)CCCCCCCCCC2 | 8.74%
80 | Cc1cc(C)c(C(=O)N2CCC(N3CCC(C(=O)NC(C)C)CC3)CC2)o1 | 0.334%
81 | COC(=O)CSc1nnc(-c2ccc(OC)cc2OC)o1 | -11.8%
82 | CCCCOC(=O)Nc1sc2c(c1C(=O)OC)CCC2 | -17.3%
83 | C#CCN(C)CC/C=C1\c2ccccc2CSc2ccccc21.Cl | -8.71%
84 | Cc1cc(N)n(-c2nc3ccccc3s2)n1 | 9.54%
85 | CC1CCCC(C)N1CCNC(=O)Cn1nc(-c2ccccc2)ccc1=O (stereo not drawn) | -18.9%
86 | CCOc1ccc(NC(=O)CSc2nnc(Cc3cccn3C)n2-c2ccc(OC)cc2)cc1 | -8.98%
87 | CSc1ccccc1NC(=O)CO/N=C(\C)c1cc2ccccc2o1 | 13.6%
88 | COc1ccc(C(=O)C2CCCN(C(=O)CSC)C2)cc1OC (stereo not drawn) | 8.85%
89 | O=S(=O)(c1ccc(N2CCCC2)cc1)C(F)(F)F | 10.7%
90 | CCOC(=O)C1=C(COC(=O)C(CC)c2ccccc2)NC(=O)NC1C (stereo not drawn) | -2.24%

— paper PMC4336329 (PLoS ONE, 2015)
